Reference: paper PMC9590495
No constants are given. Whether binding was seen depends on the method and setting. For some assays here: In cells and extracts the contact can be indirect. Some entries that bind do so weakly or less than the wild type. For some assays here: Where a sequence is shown, tags or fusion partners need not be part of it.

Sequences of proteins named here, by UniProt entry; tags and fusion partners are left off.
UniProt Q9SXZ2: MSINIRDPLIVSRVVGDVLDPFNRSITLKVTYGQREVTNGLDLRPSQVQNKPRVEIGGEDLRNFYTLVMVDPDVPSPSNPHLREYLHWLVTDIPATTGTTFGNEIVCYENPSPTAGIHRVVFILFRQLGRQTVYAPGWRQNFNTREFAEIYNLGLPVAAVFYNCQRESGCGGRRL
UniProt Q39057: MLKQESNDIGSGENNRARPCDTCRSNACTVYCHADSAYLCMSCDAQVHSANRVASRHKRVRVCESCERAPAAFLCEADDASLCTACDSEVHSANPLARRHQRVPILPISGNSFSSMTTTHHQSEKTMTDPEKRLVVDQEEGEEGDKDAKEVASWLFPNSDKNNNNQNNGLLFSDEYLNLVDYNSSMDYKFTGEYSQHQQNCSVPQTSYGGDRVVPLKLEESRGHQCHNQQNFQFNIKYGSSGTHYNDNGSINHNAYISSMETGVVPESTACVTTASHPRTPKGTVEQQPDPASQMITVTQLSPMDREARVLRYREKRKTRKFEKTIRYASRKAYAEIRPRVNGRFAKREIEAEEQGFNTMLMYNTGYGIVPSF

Columns and labels:
[1] = target: T1, Nuclear Factor YC9 (yeast two-hybrid fusion) (Arabidopsis thaliana) (UniProt Q8L4B2); test: two-hybrid; Matchmaker GAL4 Two-Hybrid System 3 (Clontech), pGADT7 and pGBKT7 fusions in yeast strain AH109; growth on selective media lacking Leu, Trp, His and Ade (methods; the legend of Fig. 1 says lacking Trp, Leu and His)
T1 sequence: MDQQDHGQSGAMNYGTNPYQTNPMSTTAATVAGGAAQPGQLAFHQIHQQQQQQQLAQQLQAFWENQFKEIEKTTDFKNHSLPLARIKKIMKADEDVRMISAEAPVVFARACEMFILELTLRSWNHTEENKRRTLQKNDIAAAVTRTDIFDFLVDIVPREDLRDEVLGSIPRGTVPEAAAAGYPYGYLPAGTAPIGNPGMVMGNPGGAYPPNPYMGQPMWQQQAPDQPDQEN

[2] = target: FLOWERING LOCUS T (yeast two-hybrid fusion) (Arabidopsis thaliana) (UniProt Q9SXZ2); test: as above
[3] = target: CONSTANS (yeast two-hybrid fusion) (Arabidopsis thaliana) (UniProt Q39057); test: as above
[4] = target: T2, Nuclear Factor YB2 (yeast two-hybrid fusion) (Arabidopsis thaliana) (UniProt Q9FGJ3); test: as above
T2 sequence: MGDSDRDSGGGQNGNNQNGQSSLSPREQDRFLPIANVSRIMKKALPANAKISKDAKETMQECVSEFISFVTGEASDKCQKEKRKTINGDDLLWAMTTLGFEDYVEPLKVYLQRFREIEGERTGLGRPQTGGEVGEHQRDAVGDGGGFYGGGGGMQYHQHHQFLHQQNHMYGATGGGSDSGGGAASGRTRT

[5] = target: T3, Nuclear Factor YC3 (yeast two-hybrid fusion) (Arabidopsis thaliana) (UniProt Q9ZVL3); test: as above
T3 sequence: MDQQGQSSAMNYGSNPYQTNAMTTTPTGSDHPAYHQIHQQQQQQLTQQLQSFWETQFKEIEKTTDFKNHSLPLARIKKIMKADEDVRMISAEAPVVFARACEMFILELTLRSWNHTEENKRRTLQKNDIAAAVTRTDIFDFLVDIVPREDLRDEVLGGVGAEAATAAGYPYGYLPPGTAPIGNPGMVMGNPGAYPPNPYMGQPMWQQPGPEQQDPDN

[6] = target: T4, Nuclear Factor YB3 (yeast two-hybrid fusion) (Arabidopsis thaliana) (UniProt O23310); test: as above
T4 sequence: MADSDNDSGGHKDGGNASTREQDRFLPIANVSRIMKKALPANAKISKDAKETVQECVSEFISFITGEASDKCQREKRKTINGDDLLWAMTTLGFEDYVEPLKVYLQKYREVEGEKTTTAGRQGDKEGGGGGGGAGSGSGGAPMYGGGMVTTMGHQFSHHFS

[7] = target: T5, Nuclear Factor YC4 (yeast two-hybrid fusion) (Arabidopsis thaliana) (UniProt Q9FMV5); test: as above
T5 sequence: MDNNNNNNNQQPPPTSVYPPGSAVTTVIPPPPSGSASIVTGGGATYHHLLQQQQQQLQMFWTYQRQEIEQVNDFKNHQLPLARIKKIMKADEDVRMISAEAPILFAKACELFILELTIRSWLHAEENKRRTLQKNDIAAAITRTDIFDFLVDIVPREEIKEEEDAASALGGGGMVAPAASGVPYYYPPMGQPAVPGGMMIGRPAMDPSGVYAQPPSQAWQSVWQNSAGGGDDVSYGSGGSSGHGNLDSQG

[8] = target: T6, NF-YC3-nEYFP (Arabidopsis thaliana) (UniProt Q9ZVL3); test: split reporter; BiFC with nEYFP and cEYFP fusions co-expressed transiently in Arabidopsis mesophyll protoplasts; EYFP fluorescence imaged within 12-18 h by confocal microscopy
T6 sequence: T3 sequence

[9] = target: T7, NF-YB3 fused to nEYFP (Arabidopsis thaliana) (UniProt O23310); test: as above
T7 sequence: T4 sequence

[10] = target: T8, NF-YC9 fused to nEYFP (Arabidopsis thaliana) (UniProt Q8L4B2); test: as above
T8 sequence: T1 sequence

[11] = target: T9, NF-YC3 (construct of the transient Co-IP) (Arabidopsis thaliana) (UniProt Q9ZVL3); test: co-IP; plasmid pairs transiently expressed in Arabidopsis mesophyll protoplasts, 12-18 h; total proteins immunoprecipitated with anti-FLAG M2 affinity gel, western blotting
T9 sequence: T3 sequence

B1: PROTEIN ARGININE … 6 (yeast two-hybrid fusion) (enzyme, UniProt Q08A71 1-435)
chain: MQSGGDFSNGFHGDHHRELELEDKQGPSLSSFGRAKKRSHAGARDPRGGLANVLRVSDQLGEHKSLETSESSPPPCTDFDVAYFHSYAHVGIHEEMIKDRARTETYREAIMQHQSLIEGKVVVDVGCGTGILSIFCAQAGAKRVYAVDASDIAVQAKEVVKANGLSDKVIVLHGRVEDVEIDEEVDVIISEWMGYMLLYESMLGSVITARDRWLKPGGLILPSHATLYMAPISHPDRYSHSIDFWRNVYGIDMSAMMQLAKQCAFEEPSVESISGENVLTWPEVVKHIDCKTIKIQELDSVTARYKFNSMMRAPMHGFAFWFDVEFSGPASSPAKNTSETSIASGSSSISPSGEVNQKKRTNPSDALVLSTSPESPPTHWQQTIVYFYDPIDVEQDQVIEGSVTLSQSKENKRFMNIHLEYSSAGRSFVKESVMR
- binding [1]: binds
- binding [2]: no binding
- binding [3]: no binding
- binding [4]: no binding
- binding [5]: binds
- binding [6]: binds
- binding [7]: no binding

B2: PRMT6-cEYFP (enzyme, UniProt Q08A71 1-435)
chain: B1 chain
- binding [8]: binds
- binding [9]: binds
- binding [10]: binds

B3: PRMT6 (construct of the transient Co-IP) (enzyme, UniProt Q08A71 1-435)
chain: B1 chain
- binding [11]: binds
